Assay results: publication PMC10530723, “The Conserved Chromatin Remodeler SMARCAD1 Interacts with TFIIIC and Architectural Proteins in Human and Mouse” (Genes, 2023)
These are yes or no findings as the source states them, for the method shown. Binding seen in cells or lysates may run through a third protein. Some binding calls cover weakened binding; strength is not graded here. One block for each binder: values may come before it.

Columns and labels:
[1] = biological target: T1, TFIIIC63 (endogenous, HeLa) (human (endogenous in HeLa)) (UniProt Q9Y5Q8); test: co-IP; endogenous proteins from HeLa nuclear extract (150 ug protein, 3 ug antibody to SMARCAD1, TFIIIC63 or TFIIIC90, Protein G Dynabeads); benzonase and ethidium bromide present throughout; washes in 20 mM HEPES pH 7.6, 100 mM KCl, 0.05% Triton X-100, last wash with additional 50 mM NaCl; Western blot
T1 sequence: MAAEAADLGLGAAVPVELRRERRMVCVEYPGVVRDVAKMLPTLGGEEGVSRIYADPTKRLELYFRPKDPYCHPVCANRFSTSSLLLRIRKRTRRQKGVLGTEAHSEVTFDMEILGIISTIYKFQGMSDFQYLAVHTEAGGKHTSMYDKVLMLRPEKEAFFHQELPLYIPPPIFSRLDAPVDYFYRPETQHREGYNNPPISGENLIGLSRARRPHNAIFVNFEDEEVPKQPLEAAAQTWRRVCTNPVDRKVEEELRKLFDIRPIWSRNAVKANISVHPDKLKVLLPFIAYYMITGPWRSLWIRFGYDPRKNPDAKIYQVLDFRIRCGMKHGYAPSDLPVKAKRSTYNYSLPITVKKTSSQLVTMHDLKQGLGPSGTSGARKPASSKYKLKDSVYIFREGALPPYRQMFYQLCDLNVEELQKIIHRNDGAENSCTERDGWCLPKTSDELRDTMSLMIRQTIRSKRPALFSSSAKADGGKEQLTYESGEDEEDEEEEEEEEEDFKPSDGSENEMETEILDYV

[2] = biological target: T2, TFIIIC90 (endogenous, HeLa) (human (endogenous in HeLa)) (UniProt Q9UKN8); test: as above
T2 sequence: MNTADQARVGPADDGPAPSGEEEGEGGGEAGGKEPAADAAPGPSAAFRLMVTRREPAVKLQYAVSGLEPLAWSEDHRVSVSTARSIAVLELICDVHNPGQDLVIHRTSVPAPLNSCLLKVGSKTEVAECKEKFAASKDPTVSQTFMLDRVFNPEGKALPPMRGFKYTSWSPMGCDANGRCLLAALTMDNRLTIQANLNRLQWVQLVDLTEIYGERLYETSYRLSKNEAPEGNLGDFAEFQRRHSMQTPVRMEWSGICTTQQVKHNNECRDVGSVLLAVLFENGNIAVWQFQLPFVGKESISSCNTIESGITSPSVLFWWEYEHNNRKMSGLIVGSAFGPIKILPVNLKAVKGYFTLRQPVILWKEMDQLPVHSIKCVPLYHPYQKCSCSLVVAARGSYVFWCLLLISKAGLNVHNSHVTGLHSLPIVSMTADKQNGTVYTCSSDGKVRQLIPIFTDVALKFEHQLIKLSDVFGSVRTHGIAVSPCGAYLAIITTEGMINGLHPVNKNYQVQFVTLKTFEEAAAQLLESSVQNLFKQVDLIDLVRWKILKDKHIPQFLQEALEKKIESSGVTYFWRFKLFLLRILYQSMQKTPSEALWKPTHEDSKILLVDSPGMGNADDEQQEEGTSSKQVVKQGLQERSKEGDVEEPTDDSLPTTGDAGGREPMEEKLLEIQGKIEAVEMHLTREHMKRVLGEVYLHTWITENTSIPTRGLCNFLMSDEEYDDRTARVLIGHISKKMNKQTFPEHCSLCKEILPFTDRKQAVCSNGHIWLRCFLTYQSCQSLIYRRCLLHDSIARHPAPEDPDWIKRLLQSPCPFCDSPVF

[3] = biological target: T3, TFIIIC63 (endogenous, mouse ESCs) (mouse (endogenous in 46C ESCs)) (UniProt Q8R2T8); test: co-IP; endogenous proteins from 46C mouse ESC nuclear extract (antibodies to SMARCAD1, TFIIIC63 or TFIIIC90); ethidium bromide and benzonase present; Western blot
T3 sequence: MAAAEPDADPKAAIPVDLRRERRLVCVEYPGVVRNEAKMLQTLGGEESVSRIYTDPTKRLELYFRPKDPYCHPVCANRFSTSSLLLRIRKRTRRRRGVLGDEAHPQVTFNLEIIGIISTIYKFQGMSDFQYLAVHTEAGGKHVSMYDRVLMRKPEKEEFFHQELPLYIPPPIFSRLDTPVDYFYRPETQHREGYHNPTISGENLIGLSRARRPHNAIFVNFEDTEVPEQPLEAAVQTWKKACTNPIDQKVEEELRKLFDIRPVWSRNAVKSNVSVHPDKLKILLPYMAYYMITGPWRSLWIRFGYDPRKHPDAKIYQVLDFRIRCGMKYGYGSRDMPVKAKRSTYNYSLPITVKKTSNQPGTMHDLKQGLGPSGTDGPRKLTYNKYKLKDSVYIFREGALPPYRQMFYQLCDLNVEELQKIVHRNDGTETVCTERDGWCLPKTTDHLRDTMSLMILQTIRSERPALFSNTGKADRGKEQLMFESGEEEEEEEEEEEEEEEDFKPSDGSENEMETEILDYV

[4] = biological target: T4, TFIIIC90 (endogenous, mouse ESCs) (mouse (endogenous in 46C ESCs)) (UniProt Q8BMQ2); test: as above
T4 sequence: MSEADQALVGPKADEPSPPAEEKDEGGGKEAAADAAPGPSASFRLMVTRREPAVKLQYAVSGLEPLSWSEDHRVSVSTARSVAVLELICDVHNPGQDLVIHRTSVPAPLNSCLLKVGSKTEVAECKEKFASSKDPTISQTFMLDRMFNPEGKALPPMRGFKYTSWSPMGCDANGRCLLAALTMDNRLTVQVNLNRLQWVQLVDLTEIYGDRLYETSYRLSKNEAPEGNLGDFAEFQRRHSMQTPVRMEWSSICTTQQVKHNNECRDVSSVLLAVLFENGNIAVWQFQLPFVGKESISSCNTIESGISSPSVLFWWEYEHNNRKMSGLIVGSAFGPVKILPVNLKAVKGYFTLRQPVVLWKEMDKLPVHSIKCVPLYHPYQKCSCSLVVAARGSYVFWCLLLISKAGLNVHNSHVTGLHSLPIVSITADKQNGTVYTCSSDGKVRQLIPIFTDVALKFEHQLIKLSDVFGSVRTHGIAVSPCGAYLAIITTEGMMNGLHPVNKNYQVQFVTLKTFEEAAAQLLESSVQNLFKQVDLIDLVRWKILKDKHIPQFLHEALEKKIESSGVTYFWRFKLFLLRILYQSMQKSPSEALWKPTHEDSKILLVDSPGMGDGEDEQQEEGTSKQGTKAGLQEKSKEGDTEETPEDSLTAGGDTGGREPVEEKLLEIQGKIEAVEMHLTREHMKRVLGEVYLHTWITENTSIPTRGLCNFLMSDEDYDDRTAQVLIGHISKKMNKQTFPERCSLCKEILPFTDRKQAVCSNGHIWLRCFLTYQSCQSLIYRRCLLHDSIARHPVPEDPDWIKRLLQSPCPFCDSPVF

[5] = biological target: T5, TFIIIC90 (endogenous, HeLa) (human (endogenous in HeLa)), Q9UKN8; test: co-IP; endogenous proteins from HeLa nuclear extract (150 ug protein, 3 ug antibody to SMARCAD1, TFIIIC63 or TFIIIC90, Protein G Dynabeads); benzonase and ethidium bromide present throughout; washes in 20 mM HEPES pH 7.6, 100 mM KCl, 0.05% Triton X-100, last wash with additional 50 mM NaCl; Western blot; conditions: remark: other sources report otherwise
T5 chain: T2 sequence

- binding [1]: binds
- binding [2]: binds
B1: SMARCAD1 (endogenous, HeLa) (protein, UniProt Q9H4L7 1-1026)
chain: MNLFNLDRFRFEKRNKIEEAPEATPQPSQPGPSSPISLSAEEENAEGEVSRANTPDSDITEKTEDSSVPETPDNERKASISYFKNQRGIQYIDLSSDSEDVVSPNCSNTVQEKTFNKDTVIIVSEPSEDEESQGLPTMARRNDDISELEDLSELEDLKDAKLQTLKELFPQRSDNDLLKLIESTSTMDGAIAAALLMFGDAGGGPRKRKLSSSSEPYEEDEFNDDQSIKKTRLDHGEESNESAESSSNWEKQESIVLKLQKEFPNFDKQELREVLKEHEWMYTEALESLKVFAEDQDMQYVSQSEVPNGKEVSSRSQNYPKNATKTKLKQKFSMKAQNGFNKKRKKNVFNPKRVVEDSEYDSGSDVGSSLDEDYSSGEEVMEDGYKGKILHFLQDASIGELTLIPQCSQKKAQKITELRPFNSWEALFTKMSKTNGLSEDLIWHCKTLIQERDVVIRLMNKCEDISNKLTKQVTMLTGNGGGWNIEQPSILNQSLSLKPYQKVGLNWLALVHKHGLNGILADEMGLGKTIQAIAFLAYLYQEGNNGPHLIVVPASTIDNWLREVNLWCPTLKVLCYYGSQEERKQIRFNIHSRYEDYNVIVTTYNCAISSSDDRSLFRRLKLNYAIFDEGHMLKNMGSIRYQHLMTINANNRLLLTGTPVQNNLLELMSLLNFVMPHMFSSSTSEIRRMFSSKTKSADEQSIYEKERIAHAKQIIKPFILRRVKEEVLKQLPPKKDRIELCAMSEKQEQLYLGLFNRLKKSINNLEKNTEMCNVMMQLRKMANHPLLHRQYYTAEKLKEMSQLMLKEPTHCEANPDLIFEDMEVMTDFELHVLCKQYRHINNFQLDMDLILDSGKFRVLGCILSELKQKGDRVVLFSQFTMMLDILEVLLKHHQHRYLRLDGKTQISERIHLIDEFNTDMDIFVFLLSTKAGGLGINLTSANVVILHDIDCNPYNDKQAEDRCHRVGQTKEVLVIKLISQGTIEESMLKINQQKLKLEQDMTTVDEGDEGSMPADIATLLKTSMGL

- binding [3]: binds
- binding [4]: binds
B2: SMARCAD1 (endogenous, mouse ESCs) (protein, UniProt Q04692 1-1021)
chain: MNLFNLDRFRFEKRSKIEEAPEAAPQPSQARPSSPISLSAEEENAEGEGSRANTPDSDVTEKTEDSSVPEPPDNERKASLSCFQNQRAIQEYIDLSSDTEDVSPNCSSTVQEKKFSKDTVIIVSEPSEDEESHDLPSVTRRNDSSELEDLSELEDLKDAKLQTLKELFPQRSDSDLLKLIESTSTMDGAIAAALLMFGDAGGGPRKRKLSSSSEEDDVNDDQSVKQPRGDRGEESNESAEASSNWEKQESIVLKLQKEFPNFDKQELREVLKEHEWMYTEALESLKVFAEDQDVQCASQSEVTNGKEVARNQNYSKNATKIKMKQKISVKPQNGFNKKRKKNVFNPKKAVEDSEYDSGSDAGSSLDEDYSSCEEVMEDGYKGKILHFLQVSSIAELTLIPKCSQKKAQKITELRPFNNWEALFTKMSKINGLSEDLIWNCKTVIQERDVVIRLMNKCEDISNKLTKQVTMLTGNGGGWNREQPSLLNQSLSLKPYQKVGLNWLALVHKHGLNGILADEMGLGKTIQAIAFLAYLFQEGNKGPHLIVVPASTIDNWLREVNLWCPSLNVLCYYGSQEERKQIRFNIHNKYEDYNVIVTTYNCAISSSDDRSLFRRLKLNYAIFDEGHMLKNMGSIRYQHLMTINARNRLLLTGTPVQNNLLELMSLLNFVMPHMFSSSTSEIRRMFSSKTKPADEQSIYEKERIAHAKQIIKPFILRRVKEEVLKLLPPKKDRIELCAMSEKQEQLYSGLFNRLKKSINNLEKNTEMCNVMMQLRKMANHPLLHRQYYTPEKLKEMSQLMLKEPTHCEANPDLIFEDMEVMTDFELHVLCKQYQHINSYQLDMDLILDSGKFRALGCILSELKQKGDRVVLFSQFTMMLDILEVLLKHHQHRYLRLDGKTQISERIHLIDEFNTDMDIFVFLLSTKAGGLGINLTSANVVILHDIDCNPYNDKQAEDRCHRVGQTKEVLVIKLISQGTIEESMLKINQQKLKLEQDMTTVDEADEGSMPADIATLLKTSMGL

- binding [5]: no binding
B3: TFIIIC110 (endogenous, HeLa), Q8WUA4 1-911 (protein)
chain: MDTCGVGYVALGEAGPVGNMTVVDSPGQEVLNQLDVKTSSEMTSAEASVEMSLPTPLPGFEDSPDQRRLPPEQESLSRLEQPDLSSEMSKVSKPRASKPGRKRGGRTRKGPKRPQQPNPPSAPLVPGLLDQSNPLSTPMPKKRGRKSKAELLLLKLSKDLDRPESQSPKRPPEDFETPSGERPRRRAAQVALLYLQELAEELSTALPAPVSCPEGPKVSSPTKPKKIRQPAACPGGEEVDGAPRDEDFFLQVEAEDVEESEGPSESSSEPEPVVPRSTPRGSTSGKQKPHCRGMAPNGLPNHIMAPVWKCLHLTKDFREQKHSYWEFAEWIPLAWKWHLLSELEAAPYLPQEEKSPLFSVQREGLPEDGTLYRINRFSSITAHPERWDVSFFTGGPLWALDWCPVPEGAGASQYVALFSSPDMNETHPLSQLHSGPGLLQLWGLGTLQQESCPGNRAHFVYGIACDNGCIWDLKFCPSGAWELPGTPRKAPLLPRLGLLALACSDGKVLLFSLPHPEALLAQQPPDAVKPAIYKVQCVATLQVGSMQATDPSECGQCLSLAWMPTRPHQHLAAGYYNGMVVFWNLPTNSPLQRIRLSDGSLKLYPFQCFLAHDQAVRTLQWCKANSHFLVSAGSDRKIKFWDLRRPYEPINSIKRFLSTELAWLLPYNGVTVAQDNCYASYGLCGIHYIDAGYLGFKAYFTAPRKGTVWSLSGSDWLGTIAAGDISGELIAAILPDMALNPINVKRPVERRFPIYKADLIPYQDSPEGPDHSSASSGVPNPPKARTYTETVNHHYLLFQDTDLGSFHDLLRREPMLRMQEGEGHSQLCLDRLQLEAIHKVRFSPNLDSYGWLVSGGQSGLVRIHFVRGLASPLGHRMQLESRAHFNAMFQPSSPTRRPGFSPTSHRLLPTP
